Some of the results follow. These are noisy estimates, calculated here from bound and input reads.
Biological target: T1, Pho4 (S. cerevisiae) (UniProt P07270)
T1 sequence: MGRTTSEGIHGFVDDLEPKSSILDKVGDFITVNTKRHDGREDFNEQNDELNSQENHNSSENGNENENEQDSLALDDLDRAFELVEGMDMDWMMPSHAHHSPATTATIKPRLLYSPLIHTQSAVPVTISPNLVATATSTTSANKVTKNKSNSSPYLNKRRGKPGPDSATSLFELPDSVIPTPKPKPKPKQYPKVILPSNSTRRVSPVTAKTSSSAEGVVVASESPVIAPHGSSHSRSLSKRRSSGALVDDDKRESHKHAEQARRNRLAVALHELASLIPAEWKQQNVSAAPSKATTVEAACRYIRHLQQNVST
Test: relative binding free energy (BET-seq); higher = weaker binding
Settings: reference: library average

Sequence	relative binding free energy [kcal/mol]
GTCTACACGTGGGGTT	0.08
AAAGGCACGTGAGTTG	0.27
GAGCTCACGTGGGTTG	0.13
TTAGGCACGTGGTACA	-0.14
ATAGTCACGTGGGGGA	-0.04
AGAATCACGTGGGTTA	0
ATTGTCACGTGTCGCT	0.11
GTGCGCACGTGGGGTG	-0.25
GTTTACACGTGTAAAT	0.43
GCGTTCACGTGGGAGG	0.31
TTGATCACGTGAGCGT	0.37
GACAACACGTGGGGGG	-0.02
GTACTCACGTGTGGTA	0.21
GGGGGCACGTGACCGT	0
GAAATCACGTGTGGCT	0.38
CGTTGCACGTGTAGAG	0.14
TGAAACACGTGGGGCA	-0.1
AAGCGCACGTGGGGCT	-0.17
CGTTGCACGTGGGGAT	-0.05
TCTTGCACGTGTTGTT	0.04
TAATTCACGTGCGTTA	0.07
GGGAGCACGTGGGATT	-0.05
AGTCACACGTGTAAGT	0.15

Sequence	relative binding free energy [kcal/mol]
GGAAGCACGTGCGGGC	0.03
AAATGCACGTGGTCGT	-0.07
GTCAGCACGTGGTACG	-0.02
GTGCTCACGTGCTGTT	0.2
TAAAACACGTGTGTGA	-0.02
CTTTGCACGTGATAGT	0.06
CTTTACACGTGCGTTG	0.19
TTGTTCACGTGCAATT	0.43
GTGTCCACGTGGTCGG	-0.14
TATAGCACGTGGGTAG	-0.18
AAGGGCACGTGAAGGT	0.13
TGGAACACGTGGAATT	0.16
TTGAACACGTGCAGGG	0.01
GCTAGCACGTGGAGGT	-0.21
TTTTGCACGTGCAAGC	0.11
TGTAGCACGTGTAGTT	0.03
GGTATCACGTGCGTAA	0.11
TTGGACACGTGATTCT	0.18
TGGCACACGTGGGGGG	-0.07
TTCTGCACGTGTGTTT	0
TATGGCACGTGCTATT	-0.25
GATTACACGTGCAGGG	0.28
CATGTCACGTGCGTGG	0.09

Sequence	relative binding free energy [kcal/mol]
TACGCCACGTGGTGTT	-0.14
GTTTTCACGTGCAGGG	0.37
TAGTACACGTGGGAAG	0.02
AGGTGCACGTGTGGTC	0.02
GGCAGCACGTGGTGAG	0.02
GGCCTCACGTGGTTGT	0.22
GGGGGCACGTGAGTCC	0.19
TGCTGCACGTGGGGGA	-0.15
TATCGCACGTGAGAGG	0.16
AGATGCACGTGGGCCG	-0.25
GATTGCACGTGACGGA	0.29
GGGAACACGTGTGATG	0.08
AAGGTCACGTGGAGAG	0.11
TTGCGCACGTGTGCTT	-0.11
GGCGGCACGTGGTTTT	-0.05
TCGTTCACGTGTAGGA	0.28
TGCGTCACGTGAGGAA	0.18
GGTTGCACGTGGCTTC	0.08
GGGGGCACGTGCTTGT	-0.01
GTGATCACGTGGGCTA	-0.03
CAGGGCACGTGGGTTC	-0.17
GGGTACACGTGAGGCG	0.33
CTTTACACGTGGTGGA	0.1

Sequence	relative binding free energy [kcal/mol]
GCTGGCACGTGGTTGC	0.03
CTGTGCACGTGCATGG	-0.06
TTCGTCACGTGGCTTG	0.03
GGAAGCACGTGTTCGG	-0.11
TGGGGCACGTGAAAGC	0.02
GGGGACACGTGGCATG	-0.04
ATAGGCACGTGTAGCG	-0.03
TTAAACACGTGGCGGT	-0.12
AAGGGCACGTGGGTTT	-0.12
GGGATCACGTGGGGTC	0.11
GCTGCCACGTGTTGGT	-0.01
ATGCGCACGTGTTGAG	-0.03
CTTGTCACGTGATGAT	0.22
TTCCGCACGTGGGTGG	-0.1
TGGGTCACGTGGGTCT	0.06
TAGATCACGTGGACGG	0.17
TGTTACACGTGATTGG	0.16
TTTAACACGTGTGGTC	0.08
TGCGGCACGTGATTAG	-0.04
TAGGTCACGTGCTTTG	0.04
AGAAGCACGTGTGTAG	-0.07
GTATTCACGTGATGAT	0.39
GTTTTCACGTGTATGC	0.28

Sequence	relative binding free energy [kcal/mol]
AGGGTCACGTGTGCTC	0.11
TTCTTCACGTGCTGTG	0.22
TATTGCACGTGCAGTG	0
GGTTGCACGTGGGCAG	-0.07
ACTGTCACGTGGGGTC	-0.09
TTCGGCACGTGTGAGA	-0.02
ACTGTCACGTGCGTGG	-0.11
GGCGTCACGTGTGTTC	0.33
AATTCCACGTGGGGTT	0
TGTGTCACGTGAAATA	0.24
GGATTCACGTGGGTCG	0.16
TGAAGCACGTGTGGTG	0.05
TTTGACACGTGTCGCG	-0.01
GGGGGCACGTGAGAAT	0.28
GTGAGCACGTGTTTTC	-0.02
GCGGTCACGTGGGAGA	-0.05
GTTGGCACGTGCAGGT	-0.12
TTCTGCACGTGTGGGA	-0.06
GTCTGCACGTGGTGAT	-0.08
GTTCTCACGTGGGCTT	0.22
GCGGTCACGTGTAGGT	0.16
ATGGGCACGTGGCGGG	-0.19
AAGGGCACGTGAGCCG	0.09

— the BET-seq Pho4 binding data (Le et al. 2018)
